# According to PubChem BioAssay AID504332 (National Center for Advancing Translational Sciences (NCATS), 2011):
# Hit rate of the full screen: of about 350,000 compounds, about 31,000 (8.9%) were called active. Inconclusive means that the source gave no clear call. Such entries were picked first, then a sample of the others. Calls come from the whole dose curve; as a rule, active = well fitted inhibition curve with a large enough effect; inconclusive = small, poorly fitted or top-dose-only effect; inactive = no such curve, though single readings can be large or run the other way. Potencies of inconclusive entries are doubtful fits and often do not repeat.
# Molecular target: Histone-lysine N-methyltransferase EHMT2 (Homo sapiens) (UniProt Q96KQ7)
# Test: qHTS Assay for Inhibitors of Histone Lysine Methyltransferase G9a; note: nearly all actives have a fitted effect of over 75% in size
# Settings: G9a H3K9 monomethylation, AlphaScreen, 2 h; activity, negative = inhibition: at 59 µM (top of the series) unless noted
# Outline: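 Enzyme 20 nM + cpd, 15 min RT; add b-H3K9 pep 500 nM / SAM 20 uM; 2 h RT; anti-H3K9me1 Ab 0.5 ug/mL + SA donor / anti-rabbit acceptor beads 20 ug/mL each, 10 min; AlphaScreen read.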
# % is set by controls: 0 for no effect and ±100 for the full control effect; potency is the fitted concentration of half-maximal effect; tags give direction and shape of the fitted curve.
# UniProt Q96KQ7, sequence (Q96KQ7 whole entry, looked up): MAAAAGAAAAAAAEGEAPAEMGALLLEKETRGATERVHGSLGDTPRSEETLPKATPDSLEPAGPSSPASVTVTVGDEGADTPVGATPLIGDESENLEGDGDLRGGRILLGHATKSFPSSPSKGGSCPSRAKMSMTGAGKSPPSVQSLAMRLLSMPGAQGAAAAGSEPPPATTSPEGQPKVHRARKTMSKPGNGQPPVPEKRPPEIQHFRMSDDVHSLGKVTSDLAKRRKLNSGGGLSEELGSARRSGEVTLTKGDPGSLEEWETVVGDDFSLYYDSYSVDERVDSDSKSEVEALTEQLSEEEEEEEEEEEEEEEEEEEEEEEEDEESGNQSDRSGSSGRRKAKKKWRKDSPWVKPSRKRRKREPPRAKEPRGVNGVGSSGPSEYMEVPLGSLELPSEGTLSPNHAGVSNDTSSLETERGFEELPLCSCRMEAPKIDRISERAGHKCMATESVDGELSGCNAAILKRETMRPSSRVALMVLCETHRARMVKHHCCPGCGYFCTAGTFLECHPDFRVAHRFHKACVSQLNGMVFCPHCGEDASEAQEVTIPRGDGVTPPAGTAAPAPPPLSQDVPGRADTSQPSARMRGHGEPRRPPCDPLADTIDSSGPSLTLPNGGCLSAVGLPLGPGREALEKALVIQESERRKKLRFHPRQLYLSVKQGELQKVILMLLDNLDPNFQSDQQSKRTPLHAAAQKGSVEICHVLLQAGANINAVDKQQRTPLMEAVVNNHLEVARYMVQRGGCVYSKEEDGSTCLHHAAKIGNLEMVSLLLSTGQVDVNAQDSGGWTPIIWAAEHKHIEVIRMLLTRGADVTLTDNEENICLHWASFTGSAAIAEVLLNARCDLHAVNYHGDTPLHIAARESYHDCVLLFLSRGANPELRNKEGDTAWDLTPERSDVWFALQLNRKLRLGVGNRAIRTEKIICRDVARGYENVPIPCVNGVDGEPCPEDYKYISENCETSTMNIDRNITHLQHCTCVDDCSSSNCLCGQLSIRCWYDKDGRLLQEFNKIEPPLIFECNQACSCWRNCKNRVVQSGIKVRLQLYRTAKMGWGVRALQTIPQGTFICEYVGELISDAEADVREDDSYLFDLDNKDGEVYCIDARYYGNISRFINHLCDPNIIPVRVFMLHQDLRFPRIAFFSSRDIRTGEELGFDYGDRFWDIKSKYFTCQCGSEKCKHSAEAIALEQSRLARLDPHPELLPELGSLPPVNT
SMILES,Potency,"activity, negative = inhibition"
CCOc1cc(Cl)c(S(=O)(=O)NCCCN2CCOCC2)cc1Cl,inactive,–
Cc1ccc(C)c(-n2cc(-c3ccccc3)nc2SCC(=O)Nc2ccccc2)c1,"inconclusive: 12.6 µM [inhibitor, partial curve]",–
COc1ccc(NC(=O)Cn2c(=O)n(Cc3ccccc3)c(=O)c3oc4ccccc4c32)cc1Cl,inactive,–
Cc1nc2c(C(=O)NCc3ccccc3Cl)cnn2c(C)c1Cc1ccccc1,inactive,–
O=c1c(-c2nn[nH]n2)coc2ccc(Cl)cc12,active: 28.2 µM,–
CN(C)c1ccc(-n2cccc2)cc1,active: 39.8 µM,–
CCCCC[C@H](O)/C=C/[C@H]1C(=O)C=C[C@@H]1C/C=C\CCCC(=O)O,inactive,–
Cn1c(=O)c2c(ncn2CC(=O)OCC(=O)NNC(=O)c2ccc(Cl)cc2)n(C)c1=O,–,inactive: 14.8% [at 12.7 µM]
Cn1c2c(c(=O)n(C)c1=O)[C@@]1(C(=O)Nc3ccccc31)C(C#N)=C(N)O2,active: 44.7 µM,–
c1ccc2c(-c3nnc(SCc4cn5ccccc5n4)o3)c[nH]c2c1,active: 8.91 µM,–
O=C(O)c1ccccc1/C=N/Nc1ccc(S(=O)(=O)N2CCCC2)cc1[N+](=O)[O-],"inconclusive: 89.1 µM [inhibitor, partial curve, poor fit]",–
O=C(CCNS(=O)(=O)c1ccccc1)NCCCc1ccccc1,"inconclusive: 89.1 µM [inhibitor, partial curve, poor fit]",–
Cc1ccc(Cl)cc1N1CCN(C(=O)CCS(=O)(=O)c2cccc3nonc23)CC1,"inconclusive: 31.6 µM [inhibitor, single point]",–
COc1ccc(S(=O)(=O)O/N=C2\CCSc3ccc(C)cc32)cc1,"inconclusive: 70.8 µM [inhibitor, partial curve, poor fit]",–
COc1cccc(-c2csc(-c3c(N)c(C(=O)c4ccccc4)n4ccccc34)n2)c1,inactive,–
CC(C)c1cc(C(=O)NNC(=S)NCc2ccco2)c(O)c(C(C)C)c1,"inconclusive: 25.1 µM [inhibitor, single point]",–
Cc1cc(=O)oc2cc(OCC(=O)OCc3nnc(-c4ccccc4)o3)ccc12,"inconclusive: 44.7 µM [inhibitor, partial curve]",–
CCOC(=O)c1c(-c2ccccc2)oc2ccc(O)c(CN3CCCC3)c12,active: 44.7 µM,–
Cn1cnc([N+](=O)[O-])c1Sc1nc2ccccc2[nH]1,inactive,–
Cc1ccc(CNC(=O)Nc2cn(CC(C)C)c(=O)c3ccccc23)cc1,"inconclusive: 10 µM [inhibitor, partial curve]",–
Cc1nc2cc(N3CCN(C)CC3)c(NC(=O)Cc3ccccc3)cc2c(=O)n1Cc1ccccc1,"inconclusive: 50.1 µM [inhibitor, partial curve]",–
S=C(Nc1ccccc1)c1nc2ccccc2s1,"inconclusive: 35.5 µM [inhibitor, partial curve, poor fit]",–
O=C(CCn1c(=S)oc2ccccc21)Nc1ccccc1F,"inconclusive: 89.1 µM [inhibitor, single point]",–

SMILES,Potency,"activity, negative = inhibition"
CCn1cc2nc(SCC(=O)Nc3ccccc3F)n(Cc3ccc(C)cc3)c(=O)c2n1,"inconclusive: 0.562 µM [inhibitor, partial curve, poor fit]",–
COc1ccc(-c2cc3nc(C)c(CCC(=O)Nc4cccc(C(F)(F)F)c4)c(C)n3n2)c(OC)c1,"inconclusive: 31.6 µM [inhibitor, partial curve, poor fit]",–
CCN(CC(=O)NCc1cccs1)C(=O)CCC(=O)c1ccc(F)cc1,"inconclusive: 28.2 µM [inhibitor, partial curve, poor fit]",–
CC(C)(C)c1csc(Sc2ccc([N+](=O)[O-])cn2)n1,"inconclusive: 25.1 µM [inhibitor, full curve]",–
CC(=O)c1ccc(N(CC(=O)NC2CCCC2)C(=O)CCC(=O)Nc2cc(C)on2)cc1,inactive,–
O=C(COC(=O)c1ccccn1)NCc1cccc(Cl)c1,"inconclusive: 44.7 µM [inhibitor, partial curve, poor fit]",–
Cc1ccc(O)c(NC(=S)NC(=O)C(C)C)c1,"inconclusive: 50.1 µM [inhibitor, partial curve]",–
Clc1ccc(C[n+]2cc(-c3ccccc3)n3c2CCC3)cc1,inactive,–
Cc1ccc(N/C=C/C(=O)c2ccc(C)cc2)cc1,"inconclusive: 89.1 µM [inhibitor, partial curve, poor fit]",–
O=C1/C(=C\c2ccc(O)cc2)SC(=S)N1c1cccnc1,active: 31.6 µM,–
COc1ccc(C(=O)CSc2nnnn2Cc2ccccc2)cc1,–,inactive: -25.7% [at 12.7 µM]
O=Cc1cccc(OC(=O)/C=C/c2ccco2)c1,"inconclusive: 28.2 µM [inhibitor, single point]",–
Cc1nnc(SCc2ccccc2Cl)c2cc3sccc3n12,"inconclusive: 0.891 µM [inhibitor, partial curve, poor fit]",–
COc1ccc(NS(=O)(=O)c2ccc3nc(COc4ccc(C#N)cc4)[nH]c3c2)cc1,"inconclusive: 31.6 µM [inhibitor, single point]",–
CNCCOc1ccc(Cl)c(Cl)c1,active: 39.8 µM,–
O=C(Oc1ccc(Br)cc1C(=S)N1CCOCC1)c1cccc([N+](=O)[O-])c1,active: 7.08 µM,–
O=C(NCCN1CCOCC1)c1cn(-c2ccccc2)nc1-c1cccs1,"inconclusive: 89.1 µM [inhibitor, single point]",–
CCC(C)c1ccc(OCCCCN2CCOCC2)cc1 (stereo not given),active: 10 µM,–
Cc1ccc(CNC(=O)C2c3ccccc3C(=O)N3CCc4ccccc4C23)o1 (stereo not given),active: 31.6 µM,–
COc1cc(OC)c(NC(=O)C(NS(=O)(=O)c2cccc3nsnc23)c2ccccc2)cc1Cl (stereo not given),"inconclusive: 20 µM [inhibitor, partial curve, poor fit]",–
Cc1ccc(-c2[nH]c(-c3ccc(Cl)cc3)nc2SCC(=O)NCC2CCCO2)cc1 (stereo not given),"inconclusive: 89.1 µM [inhibitor, single point]",–
Cn1c(C(=O)N2CCCC(C(=O)NCc3ccc4c(c3)OCO4)C2)cc2sccc21 (stereo not given),active: 50.1 µM,–
